The other results are listed elsewhere or left out. The data describe in vitro nicking of single-stranded DNA by Rep domains for 1 h at 37 °C with 3 µM enzyme; only the middle of the 90-letter strands is printed. Numbers give uncut DNA relative to the enzyme-free pool, as log2; the lower, the more was cut; hits are not called. The scaling is to total reads, so uncut sequences can rise above 0 when many others are cut.
Test system: T1, Rep nickase domain of tomato golden mosaic virus
T1 sequence (protein, residues 1-124, tag omitted): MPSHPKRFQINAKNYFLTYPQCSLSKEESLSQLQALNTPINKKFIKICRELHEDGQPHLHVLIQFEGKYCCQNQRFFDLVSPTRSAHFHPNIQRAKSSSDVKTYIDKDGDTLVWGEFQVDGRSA
Test: uncleaved DNA left, log2 of reads against the no-enzyme library (log2 ratio); higher = less cleavage (more negative = more Rep cleavage of the k-mer); sequences stand for … in CTCGTCCG…ACCGGAGA
Protocol: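 A pool of 90-nt single-stranded DNAs with seven random bases just before the constant AC of the nick site (name = the seven bases) was cut by 3 µM recombinant His6-SUMO-tagged Rep nickase domain (300 nM DNA, 50 mM HEPES pH 8.0, 50 mM NaCl, 1 mM MnCl2, 1 h, 37 °C, three replicates). Uncut DNA was amplified and sequenced.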

| Sequence | uncleaved DNA left (log2) |
| --- | --- |
| TCACCGA | -0.0248 |
| CATATTT | -0.121 |
| TTATACC | -0.168 |
| TACTGTT | -2.02 |
| GGGCGAC | 0.0527 |
| AAACCCA | 0.202 |
| AAGGCGA | -0.0946 |
| CGTGTTA | 0.141 |
| CCTCCCC | -0.0605 |
| TAGTTAC | -0.0882 |
| GGACGGT | -0.00202 |
| CCAAAGG | 0.0459 |
| CCTGCGA | -0.166 |
| CTGGGAA | 0.00793 |
| AAATTAT | -3.48 |
| ACCCCTC | 0.0159 |
| ATGGCTC | -0.0838 |
| GTGTTTG | -0.0452 |
| ATGTGCT | -0.0613 |
| GATCATA | -0.0107 |

| Sequence | uncleaved DNA left (log2) |
| --- | --- |
| CTAACGA | -0.0153 |
| CGAGTAG | -0.0427 |
| AACGAGG | 0.245 |
| GTTGGGG | 0.0467 |
| CGGTACG | -0.178 |
| GCGGAGG | 0.00376 |
| GGCACGT | -0.0134 |
| GTACCTT | 0.142 |
| CTCTGCT | -0.223 |
| TGTCGCC | 0.0239 |
| AGGCAAC | 0.042 |
| GAATCCC | -0.193 |
| TTAGTGC | -0.114 |
| AAGAATT | -0.0256 |
| TTTTACG | -0.0494 |
| ACGTCGC | -0.0917 |
| AGTGTTC | -0.00931 |
| CACATTA | -0.0799 |
| TCATACC | -0.0143 |
| CCCCGTC | -0.119 |
